From the supplement of paper PMC4967469
Lines with a small IC50 respond at low doses; fits outside the tested doses are given as limits. AUC, from the same fit, is the share of area under the viability curve across the 256-fold dose range; values near 1 show little effect. For part of these data: Any top dose called inferred comes from the curve model; the source does not state it. For part of these data: An entry number marks a drug with two screens in the source, which often give different values.

Columns and labels:
Assay in all cases: Viability of human cancer cell lines after 72 h of drug (GDSC screen)
RDEA119 = compound: COc1cc(F)c(F)c(Nc2ccc(I)cc2F)c1NS(=O)(=O)C1(C[C@H](O)CO)CC1 [RDEA119]; conditions: top dose 5 µM, top dose inferred
Description: (§1)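 Human cancer cell lines in 384-well plates, medium with 10% serum, drug for 72 h over a 256-fold dose range (nine 2-fold or five 4-fold steps up to the top dose). Adherent lines were fixed and stained with the nucleic acid dye Syto60, suspension lines read with resazurin; signal relative to control wells, capped at 0 and 100%. One two-parameter sigmoid per drug and line, fitted in a mixed model over all curves with the slope shared within a line.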

OSU-03012 = compound: NCC(=O)Nc1ccc(-n2nc(C(F)(F)F)cc2-c2ccc3c(ccc4ccccc43)c2)cc1 [OSU-03012]; conditions: top dose 16 µM; top dose inferred
Description: as §1

5-Fluorouracil = compound: O=c1[nH]cc(F)c(=O)[nH]1 [5-Fluorouracil]; conditions: top dose 32 µM; top dose inferred
Description: as §1

AC220 = compound: CC(C)(C)c1cc(NC(=O)Nc2ccc(-c3cn4c(n3)sc3cc(OCCN5CCOCC5)ccc34)cc2)no1 [AC220]; conditions: top dose 1.024 µM; top dose inferred
Description: as §1

QS11 = compound: OC[C@H](Cc1ccccc1)Nc1nc(Oc2ccc3c(c2)CCC3)nc2c1ncn2Cc1ccc(-c2ccccc2)cc1 [QS11]; conditions: top dose 10.24 µM
Description: as §1

CUDC-101 = compound: C#Cc1cccc(Nc2ncnc3cc(OC)c(OCCCCCCC(=O)NO)cc23)c1 [CUDC-101]; conditions: top dose 5.12 µM; top dose inferred
Description: as §1

JNK-9L = compound: Fc1cc(-c2ccnc(Nc3ccc(-n4cnc(N5CCOCC5)n4)cc3)n2)cc(N2CCOCC2)c1 [JNK-9L]; conditions: top dose 5.12 µM; top dose inferred
Description: as §1

Cell Line	AUC (RDEA119; screen: GDSC drug entry 1014)	IC50 (RDEA119; screen: GDSC drug entry 1014)	AUC (RDEA119; screen: GDSC drug entry 1526)	IC50 (RDEA119; screen: GDSC drug entry 1526)	AUC (OSU-03012)	IC50 (OSU-03012)	AUC (5-Fluorouracil)	IC50 (5-Fluorouracil)	AUC (AC220)	IC50 (AC220)	AUC (QS11)	IC50 (QS11)	AUC (CUDC-101)	IC50 (CUDC-101)	AUC (JNK-9L)	IC50 (JNK-9L)
NCI-H847 (small cell lung carcinoma, adherent)	0.99	> 5 µM	0.981	> 5 µM	0.763	4.77 µM	0.918	> 32 µM	0.97	> 1.02 µM	0.849	5.57 µM	0.258	0.0769 µM	0.718	1.15 µM
NCI-H1092 (small cell lung carcinoma, suspension)	0.988	> 5 µM	0.984	> 5 µM	0.99	> 16 µM	0.912	> 32 µM	0.974	> 1.02 µM	0.98	> 10.2 µM	0.465	0.257 µM	0.79	2.31 µM
NCI-H1155 (large cell lung carcinoma, suspension)	0.935	> 5 µM	0.992	> 5 µM	0.859	9.69 µM	0.949	> 32 µM	0.993	> 1.02 µM	0.96	> 10.2 µM	0.664	0.834 µM	0.795	1.91 µM
NCI-H1304 (small cell lung carcinoma, suspension)	0.986	> 5 µM	0.978	> 5 µM	0.782	7.22 µM	0.984	> 32 µM	0.978	> 1.02 µM	0.906	> 10.2 µM	0.77	2.09 µM	0.719	1.41 µM
NCI-H1355 (lung adenocarcinoma, adherent)	0.883	> 5 µM	0.697	1.44 µM	0.733	6.33 µM	0.949	> 32 µM	0.974	> 1.02 µM	0.92	> 10.2 µM	0.918	> 5.12 µM	0.666	1.15 µM
NCI-H1395 (lung adenocarcinoma, adherent)	0.847	> 5 µM	0.927	> 5 µM	0.849	> 16 µM	0.961	> 32 µM	0.977	> 1.02 µM	0.966	> 10.2 µM	0.804	3.61 µM	0.82	4.28 µM
NCI-H1435 (lung adenocarcinoma, semi-adherent)	0.976	> 5 µM	0.992	> 5 µM	0.876	12.9 µM	0.988	> 32 µM	0.993	> 1.02 µM	0.974	> 10.2 µM	0.985	> 5.12 µM	0.552	0.435 µM
NCI-H1436 (small cell lung carcinoma, suspension)	0.98	> 5 µM	0.98	> 5 µM	0.806	9.54 µM	0.863	> 32 µM	0.973	> 1.02 µM	0.978	> 10.2 µM	0.474	0.269 µM	0.709	1.36 µM
NCI-H1563 (lung adenocarcinoma, adherent)	0.859	> 5 µM	0.872	> 5 µM	0.878	> 16 µM	0.973	> 32 µM	0.839	0.899 µM	0.951	> 10.2 µM	0.786	2.66 µM	0.587	0.58 µM
NCI-H1568 (lung adenocarcinoma, adherent)	0.828	4.19 µM	0.78	2.6 µM	0.741	5.9 µM	0.971	> 32 µM	0.978	> 1.02 µM	0.974	> 10.2 µM	0.98	> 5.12 µM	0.555	0.469 µM
NCI-H1573 (lung adenocarcinoma, adherent)	–	–	0.956	> 5 µM	0.879	15.5 µM	0.969	> 32 µM	0.973	> 1.02 µM	0.986	> 10.2 µM	0.821	2.85 µM	0.833	3.17 µM
NCI-H1581 (large cell lung carcinoma, semi-adherent)	–	–	0.909	> 5 µM	0.869	12.8 µM	0.975	> 32 µM	0.97	> 1.02 µM	0.984	> 10.2 µM	0.443	0.227 µM	0.749	1.54 µM
NCI-H1623 (lung adenocarcinoma, adherent)	0.755	2.04 µM	0.849	> 5 µM	0.858	> 16 µM	0.975	> 32 µM	0.973	> 1.02 µM	0.943	> 10.2 µM	0.584	0.572 µM	0.716	1.52 µM
NCI-H1648 (lung adenocarcinoma, adherent)	0.933	> 5 µM	0.93	> 5 µM	0.735	4.93 µM	0.802	16.9 µM	0.965	> 1.02 µM	0.953	> 10.2 µM	0.473	0.269 µM	0.561	–
NCI-H1666 (lung adenocarcinoma, semi-adherent)	–	–	0.533	0.388 µM	0.756	5.94 µM	0.942	> 32 µM	0.987	> 1.02 µM	0.982	> 10.2 µM	0.749	1.8 µM	0.758	1.94 µM
NCI-H1688 (small cell lung carcinoma, adherent)	0.952	> 5 µM	0.985	> 5 µM	0.937	> 16 µM	0.964	> 32 µM	0.954	> 1.02 µM	0.97	> 10.2 µM	0.524	0.374 µM	0.628	0.748 µM
